{"source": "PubChem BioAssay AID463173", "about": "(ICCB-Longwood Screening Facility, Harvard Medical School, 2010)", "note": "Hit rate of the full screen: of about 52,000 compounds, about 1,700 (3.3%) were called active. Cut-off read from the data, not from the text of the source: active = survival mostly below about 52% (no sharp cut-off); inactive = mostly above about 56%. The list shows a part of the results.", "data": [{"system": "Wild type", "assay": "S. aureus survival, RN4220 and DeltatarO strains – OD600, teichoic acid synthesis inhibitors, primary screen (AID 463173)", "settings": "S. aureus RN4220 wild type/DeltatarO growth, OD600, 18 h, active compounds read low, screened at 18.75 µg/mL (by protocol)", "values": [{"smiles": "COc1cccc(NC(=O)CCc2c(C)nc3nc(CNC(=O)c4cccc(F)c4)nn3c2C)c1", "survival": "inactive: 99%"}, {"smiles": "C#CCOc1ccc(-c2nnc(Nc3ccc(NC(C)=O)cc3)c3ccccc23)cc1", "survival": "inactive: 80%"}, {"smiles": "Cc1oc2ccc(O)c(CN3CCCC3)c2c1C(=O)Nc1ccc(C(C)C)cc1", "survival": "inactive: 85%"}, {"smiles": "CCSC1=C(C#N)C2(CCCCC2)C(C#N)=C(N)N1", "survival": "inactive: 120%"}, {"smiles": "Cc1c(Cl)cccc1NC(=O)C1CCCN(c2ncnc3onc(C)c23)C1", "note": "(centres undefined)", "survival": "inactive: 60%"}, {"smiles": "CCOC(=O)N1CCC(NC(=O)c2cnn(-c3cccc(F)c3)c2-n2cccc2)CC1", "survival": "inactive: 69%"}, {"smiles": "O=c1c2ccccc2nc2n1CCN2", "survival": "inactive: 116%"}, {"smiles": "O=C(NCc1ccccc1Cl)c1ccc2c(c1)N(Cc1ccccc1)C(=O)CS2", "survival": "inactive: 78%"}, {"smiles": "NS(=O)(=O)c1ccc(CCNc2ncnc3c2cnn3-c2cccc(Cl)c2)cc1", "survival": "inactive: 74%"}, {"smiles": "Cc1ccc(Cl)cc1N1CCN(C(=O)c2ccc3c(c2)CCN3S(=O)(=O)c2ccccc2)CC1", "survival": "inactive: 90%"}, {"smiles": "Cc1ccc(-c2nnc(Nc3cccc(O)c3)c3ccccc23)cc1S(=O)(=O)NCC1CCCO1", "note": "(centres undefined)", "survival": "inactive: 59%"}, {"smiles": "COc1ccc(CCC(=O)NCc2nc3cccnc3n2Cc2ccc(F)cc2)cc1", "survival": "inactive: 123%"}, {"smiles": "CC1CCN(S(=O)(=O)c2ccc3c(c2)c(=O)c(C(=O)NC(C)c2ccccc2)cn3C)CC1", "note": "(centres undefined)", "survival": "inactive: 79%"}, {"smiles": "CN(CC(=O)Nc1ccccc1F)S(=O)(=O)c1ccc2c(c1)c(=O)n(C)c(=O)n2C", "survival": "inactive: 132%"}, {"smiles": "O=C(NCCc1ccccc1)c1ccc2c(c1)N(Cc1ccccc1)C(=O)c1ccccc1S2(=O)=O", "survival": "inactive: 93%"}, {"smiles": "CCc1ccc(N2CCN(S(=O)(=O)N(C)C)CC2)cc1", "survival": "inactive: 119%"}, {"smiles": "COc1ccc(CNC(=O)c2cc(=O)[nH]c3ccc(S(=O)(=O)N4CCCC4)cc23)c(OC)c1", "survival": "inactive: 60%"}, {"smiles": "O=C(NCCc1ccccc1)C1CCN(Cc2cc3ccccc3n2Cc2cccc(Cl)c2)CC1", "survival": "inactive: 66%"}, {"smiles": "CC(=O)c1cccc(NC(=O)C(CC(C)C)NS(=O)(=O)c2ccc3c(c2)CCN3C(C)=O)c1", "note": "(centres undefined)", "survival": "inactive: 117%"}, {"smiles": "CCN(CC)S(=O)(=O)c1cccc2nsnc12", "survival": "inactive: 101%"}, {"smiles": "CCOC(=O)CN(Cc1ccccc1)C(C(=O)NC1CCCCC1)c1ccc(OC)cc1", "note": "(centres undefined)", "survival": "inactive: 20%"}, {"smiles": "COc1cccc(Nc2sc(C(=O)c3ccc(Cl)cc3)c(N)c2C(=O)NCc2ccc(C)cc2)c1", "survival": "inactive: 76%"}, {"smiles": "COc1ccc(Cl)cc1NC(=O)c1ccc2c(c1)CCN2S(C)(=O)=O", "survival": "inactive: 96%"}, {"smiles": "Cc1cc(NC(=O)CSc2nc(-c3ccccc3C)nc3c2c(=O)n(C)c(=O)n3C)no1", "survival": "inactive: 60%"}, {"smiles": "CCOc1cc(C(=O)Nc2cccc3cccnc23)cc(OCC)c1OCC", "survival": "inactive: 23%"}, {"smiles": "Cc1ccc(Nc2nc3ccccc3c3nnc(C)n23)c(C)c1", "survival": "inactive: 79%"}, {"smiles": "COc1ccc(-c2cc3nc(C)c(CCC(=O)N4CCN(c5ccc(F)cc5)CC4)c(C)n3n2)c(OC)c1", "survival": "inactive: 85%"}, {"smiles": "CCCCN(CCCC)CCNC(=O)CN1C(=O)CSc2ccc(S(=O)(=O)N3CCOCC3)cc21", "survival": "inactive: 69%"}, {"smiles": "COc1ccccc1OCC(=O)NC1CC(=O)N(c2ccc3c(c2)OCCO3)C1", "note": "(centres undefined)", "survival": "inactive: 74%"}, {"smiles": "CC(=O)c1cccc(Nc2cc(C)nc3nc(Cc4ccccc4)nn23)c1", "survival": "inactive: 80%"}, {"smiles": "COc1ccc(NC(=O)c2c(C)oc3ccc(O)c(CN4CCN(Cc5ccccc5)CC4)c23)cc1Cl", "survival": "inactive: 50%"}, {"smiles": "CCCOc1ccc(CNC(=O)c2ccc(C)c(-n3c(C)nc4cccnc43)c2)cc1", "survival": "inactive: 74%"}, {"smiles": "Cc1oc2ncn(C)c(=O)c2c1C(=O)NCCCN1CCCCC1C", "note": "(centres undefined)", "survival": "inactive: 82%"}, {"smiles": "CC(=O)c1cc(-c2ccc(F)cc2)n(CC(=O)NC2CCC(C)CC2)c1C", "note": "(centres undefined)", "survival": "inactive: 60%"}, {"smiles": "CC(=O)c1cccc(NC(=O)Nc2nnc(N3CCCC3)s2)c1", "survival": "inactive: 105%"}, {"smiles": "CCOC(=O)c1c(C)n(-c2ccccc2)c2ccc(OC(=O)c3cccc(C)c3)cc12", "survival": "inactive: 50%"}, {"smiles": "COc1cccc(CNC(=O)c2ccc3c(=O)n4nc(Nc5ccccc5)sc4nc3c2)c1", "survival": "inactive: 75%"}, {"smiles": "O=C(Nc1cccc(C(F)(F)F)c1)N1CC2CCCN2c2ccccc21", "note": "(centres undefined)", "survival": "inactive: 55%"}, {"smiles": "COc1ccc(-n2nc(C(=O)Nc3ccc(Cl)cn3)c3c4ccccc4n(C)c3c2=O)cc1", "survival": "inactive: 79%"}, {"smiles": "Cc1cccc(NC(=O)Cn2nc3c4ccccc4n(Cc4ccccc4)cc-3c2=O)c1", "survival": "inactive: 69%"}, {"smiles": "COc1cc(OC)c(N(C)C(=O)c2cn(C3CCCC3)c(=O)c3c2c2ccccc2n3C)cc1Cl", "survival": "inactive: 69%"}, {"smiles": "Cc1ccccc1C(=O)OCc1cc(=O)n2nc(C(C)C)sc2n1", "survival": "inactive: 68%"}, {"smiles": "Cc1ccc(N2CCN(C(=O)c3cnn(-c4ccc(F)cc4F)c3C3CCN(C(=O)OC(C)(C)C)CC3)CC2)c(C)c1", "survival": "inactive: 119%"}, {"smiles": "Cc1nc2cc(C(F)(F)F)ccc2n1C1CCN(CC(=O)N2CCCC2)CC1", "survival": "inactive: 111%"}, {"smiles": "CN(Cc1ccccc1)S(=O)(=O)c1ccc2[nH]c3c(c2c1)CCCCC3", "survival": "inactive: 76%"}, {"smiles": "CCN1CCN(C(c2ccc(C)cc2)c2c(O)cc(C)n(Cc3ccco3)c2=O)CC1", "note": "(centres undefined)", "survival": "inactive: 68%"}, {"smiles": "CCNc1nc(Cl)nc(NC2CCCCC2)n1", "survival": "inactive: 113%"}, {"smiles": "COc1ccc(-n2nc(C(=O)O)c(=O)n(C)c2=O)cc1", "survival": "inactive: 73%"}, {"smiles": "CC1=C(C(=O)Nc2ccc(C)cc2C)C(c2ccc(C(=O)O)cc2)n2nc(SCc3ccccc3)nc2N1", "note": "(centres undefined)", "survival": "inactive: 64%"}, {"smiles": "COc1ccc2[nH]c3nc(SCC(=O)NC(C)(C)C)nnc3c2c1", "survival": "inactive: 104%"}, {"smiles": "CCOC(=O)N1CCN(C(=O)CN(C)S(=O)(=O)c2cc(Cl)ccc2Cl)CC1", "survival": "inactive: 105%"}, {"smiles": "Cc1ccc2c(c1)c1c(c(=O)n(-c3ccccc3)c(=O)n1CC(=O)c1ccc(F)cc1)n2C", "survival": "inactive: 65%"}, {"smiles": "Cc1ccc(OCCCC(=O)Nc2ccc3c(c2)OCO3)cc1", "survival": "inactive: 111%"}, {"smiles": "CCOc1ccc(CNC(=O)CC(C)n2nc(C)cc2C)cc1OC", "note": "(centres undefined)", "survival": "inactive: 91%"}, {"smiles": "Cc1ccc(NC(=O)c2ccc(CN3CC(=O)N4CCCCC4C3=O)cc2)cc1", "note": "(centres undefined)", "survival": "active: -6%"}, {"smiles": "Nc1nnc(SCC(=O)C2CC2)s1", "survival": "inactive: 108%"}, {"smiles": "CCc1nn2c(=O)cc(COC(=O)c3ccc(NC(=O)COc4ccc(C)cc4)cc3)nc2s1", "survival": "inactive: 115%"}, {"smiles": "Cn1c(SCC(=O)N2CCCc3ccccc32)ncc(C(=O)Nc2ccccc2)c1=O", "survival": "inactive: 128%"}, {"smiles": "CCc1cccc(NC(=O)Cn2c(=O)n(-c3cccc(Cl)c3)c(=O)c3c2c2cc(C)ccc2n3C)c1", "survival": "inactive: 68%"}, {"smiles": "Cc1ccc(S(=O)(=O)N(C)CC(=O)O)cc1", "survival": "inactive: 113%"}, {"smiles": "COc1ccc(OC)c(CNC(=O)c2cnc3c(C)cccn3c2=O)c1", "survival": "inactive: 74%"}, {"smiles": "Cc1cc(C)cc(NC(=O)CSc2nc(=O)n(Cc3ccccn3)c3c2CCC3)c1", "survival": "inactive: 64%"}, {"smiles": "CCOC(=O)C(C)Sc1nc(-c2ccccc2Cl)cc(-c2ccccc2)c1C#N", "note": "(centres undefined)", "survival": "inactive: 79%"}, {"smiles": "CCN(CC)C(=O)c1ccccc1NC(=O)c1ccccc1", "survival": "inactive: 98%"}, {"smiles": "CCN(c1ccccc1)S(=O)(=O)c1ccc(-c2cc(C)no2)s1", "survival": "inactive: 159%"}, {"smiles": "CSc1ccc(Cn2nnc(C(=O)Nc3ccc(C)cc3Cl)c2N)cc1", "survival": "inactive: 97%"}, {"smiles": "Cc1ccc2[nH]c(=O)c(CN(C(=O)c3cccc(Cl)c3)C(C)(C)C)cc2c1", "survival": "inactive: 108%"}, {"smiles": "Cc1ccccc1C(=O)Nc1cccc(C(=O)OCc2cc(=O)n3ccsc3n2)c1", "survival": "inactive: 64%"}, {"smiles": "Cc1cccc(Oc2nc3c(c(=O)n(C)c(=O)n3C)n2Cc2ccccc2)c1C", "survival": "inactive: 75%"}, {"smiles": "COc1ccc(-n2cc(-c3ccccc3)c3c(NC4CCCC4)ncnc32)cc1", "survival": "inactive: 59%"}, {"smiles": "CC(C)(C)NS(=O)(=O)c1ccc(NC(=O)CN2C(=O)c3ccccc3C2=O)cc1", "survival": "inactive: 107%"}, {"smiles": "CC(C)CC(=O)Nc1cc(-c2ccccc2F)nn1-c1ccccc1", "survival": "inactive: 82%"}, {"smiles": "Cc1cccc(C)c1OCc1cc(=O)n2c3c(sc2n1)CCCC3", "survival": "active: -1%"}, {"smiles": "COc1ccccc1-c1noc(CCCC(=O)NCc2ccco2)n1", "survival": "inactive: 86%"}, {"smiles": "Cc1cc(C)cc(NC(=O)Nc2nnc(N(C)C3CCCCC3)s2)c1", "survival": "inactive: 127%"}, {"smiles": "C=CCn1c(/N=C/c2ccc3c(c2)OCO3)nc2ccccc21", "survival": "inactive: 103%"}, {"smiles": "COc1cc(NC(=O)Cn2c(=O)n(CC3CCCO3)c(=O)c3ccccc32)cc(OC)c1", "note": "(centres undefined)", "survival": "inactive: 121%"}, {"smiles": "CCOc1ccc(CCNc2nc3ccccc3n3c(C)nnc23)cc1OCC", "survival": "inactive: 111%"}, {"smiles": "COc1ccc(C(=O)Nc2nnc(C(C)C)s2)cc1OC", "survival": "inactive: 85%"}, {"smiles": "COc1ccc2sc(N(Cc3cccnc3)C(=O)COc3ccccc3)nc2c1", "survival": "inactive: 57%"}, {"smiles": "CCn1cnc2c(=O)oc3ccc(S(=O)(=O)Nc4ccc(OC)cc4)cc3c21", "survival": "inactive: 81%"}, {"smiles": "O=c1ccc2nc3ccccc3c(=O)n2[nH]1", "survival": "inactive: 111%"}, {"smiles": "COc1ccc(CCNC(=O)c2ccc(Cn3c(=O)c4ccccc4n(Cc4cccc(C)c4)c3=O)cc2)cc1OC", "survival": "inactive: 126%"}, {"smiles": "CCC1CCCCN1S(=O)(=O)c1cc(C(=O)Nc2ccc(C)c(F)c2)ccc1F", "note": "(centres undefined)", "survival": "inactive: 71%"}, {"smiles": "CCOCCCn1c(=N)c(C(=O)NC2CCCC2)cc2c(=O)n3cc(C)ccc3nc21", "survival": "inactive: 70%"}, {"smiles": "Cc1ccc(CNC(=O)c2cnn(-c3cccc(C)c3)c2C2CCN(C(=O)OC(C)(C)C)CC2)cc1", "survival": "inactive: 84%"}, {"smiles": "CCCCc1nn2c(=O)cc(COC(=O)c3ccc(NC(=O)C(CC)CC)cc3)nc2s1", "survival": "inactive: 78%"}, {"smiles": "Cc1ccc(NC(=O)c2cc3nc(-c4ccccc4)cc(-c4ccccc4)n3n2)cc1", "survival": "inactive: 92%"}, {"smiles": "COc1ccccc1Cc1nc2ccccc2nc1SCC(=O)Nc1cc(Cl)ccc1OC", "survival": "inactive: 89%"}]}]}
